# Measured values published in PubChem BioAssay AID504832 (National Center for Advancing Translational Sciences (NCATS), 2011).
# The campaign covered roughly 310,000 compounds. About 18,000 (5.8%) were called active. This list was built around the results that the source calls inconclusive (neither active nor inactive); the mix of calls is not that of the screen. The call rests on the fitted dose curve; in most records, active means well fitted inhibition curve with a large enough effect; inconclusive means small, poorly fitted or top-dose-only effect, or another doubt; inactive means no such curve, though single readings can be large or run the other way. No potency is given beside an inconclusive call; the fits are too rough.
# Test: Primary qHTS for delayed death inhibitors of the malarial parasite plastid, 48 hour incubation
# Conditions: P. falciparum luciferase growth in erythrocytes; series mostly up to 28.7 µM
# Summary of the method: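 First compound was added to culture medium, then infected red cells at 0.1% parasitemia and 2% hematocrit (final). After incubation at 37 C under 5% CO2, luciferase detection reagent was dispensed and light output recorded.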
# Potency means the concentration at half of the fitted maximal effect; tags describe the fitted curve by direction and shape.
row,SMILES,Potency
1,CCN(c1ccccc1)S(=O)(=O)c1ccc(OC)c(NC(=O)Cn2cnc3c2c(=O)n(C)c(=O)n3C)c1,"inconclusive [inhibitor, partial curve]"
2,Fc1ccc(-c2nc(-c3cccs3)[nH]c2-c2ccc(F)cc2)cc1,"inconclusive [inhibitor, single point]"
3,O=C(NCCCO)C(=O)NCC(c1ccc2c(c1)OCO2)N1CCN(c2ccc(F)cc2)CC1 (configuration not stated),"inconclusive [inhibitor, partial curve, poor fit]"
4,O=[N+]([O-])c1ccc(O)c(-c2cc(C(F)(F)F)nc(-c3ccccc3)n2)c1,active: 0.37 µM
5,CCNc1nc(NC(C)C)nc(OCCNS(=O)(=O)c2cc(C)ccc2C)n1,"inconclusive [inhibitor, single point]"
6,O=C(NCc1nnc(SCC(=O)N2CCCC2)o1)c1c(F)cccc1F,inactive
7,O=C(Nc1ccc(OC(F)(F)F)cc1)N1CCN(c2ccnc3cc(Cl)ccc23)CC1,"inconclusive [inhibitor, full curve]"
8,Cc1cc(=O)c(C(=O)O)cn1-c1ccc(C(C)C)cc1,"inconclusive [inhibitor, partial curve]"
9,CN(Cc1ccon1)Cc1cn(Cc2ccccc2)nc1-c1ccc2c(c1)OCO2,"inconclusive [inhibitor, single point]"
10,CCOC(=O)c1ccc(Nc2cc(C)nc(-c3ccccc3O)n2)cc1,"inconclusive [inhibitor, single point]"
11,COc1ccc(/C=C2\SC(=Nc3ccccc3OC)NC2=O)cc1,active: 0.329 µM
12,Cc1ccccc1CCNC(=O)CCn1nc(C)c2c(C)n(-c3ccccc3)nc2c1=O,"inconclusive [inhibitor, partial curve, poor fit]"
13,CCCC1Oc2ccccc2C(=O)N(CC(=O)c2ccc3c(c2)OCCO3)C1=O (configuration not stated),inactive
14,CNC(=O)c1ccc(Nc2nc(-c3ccccc3)nc3ccccc23)cc1,inactive
15,CCCCC(=O)Nc1ccc(C(=O)N2CCN(c3ccccc3OC)CC2)cc1,"inconclusive [inhibitor, single point]"
16,COCCn1c(SCC(=O)N2CC(C)OC(C)C2)nc2c([nH]c3ccccc32)c1=O (configuration not stated),"inconclusive [inhibitor, single point]"
17,CC1C(=O)N2CCCc3cc(NC(=O)C(=O)NCc4ccc5c(c4)OCO5)cc1c32 (configuration not stated),active: 8.28 µM
18,COCCNC(=O)c1cn(C)c2ccccc2c1=O,inactive
19,Cc1onc(-c2ccccc2Cl)c1C(=O)N(C)CC(=O)Nc1ccc(F)c(F)c1F,"inconclusive [inhibitor, partial curve, poor fit]"
20,CCC(=O)N1CCN(c2ccccc2NC(=O)COc2cccc(C)c2C)CC1,"inconclusive [inhibitor, partial curve]"
21,COc1ccccc1-n1c(SCC(=O)Nc2cccc(S(N)(=O)=O)c2)nc2ccccc2c1=O,"inconclusive [inhibitor, single point]"
22,COc1ccc(C(=O)c2c(C)c3cc(C)ccc3n2CC(O)CN2CCOCC2)cc1 (configuration not stated),"inconclusive [inhibitor, partial curve, poor fit]"
23,CC[N+](C)(CC)CCC(c1ccccc1)C1CCCCC1 (configuration not stated),active: 6.57 µM

row,SMILES,Potency
1,COc1ccc(C)cc1S(=O)(=O)N(C)CC(=O)NCc1ccncc1,inactive
2,CN1CCN(c2cc3c(nn2)Oc2ccccc2N3C)CC1,inactive
3,C#CCOCCOCCOCCNc1nc(N2CCN(C(=O)C(Cc3cc4ccccc4[nH]3)n3cc(C(N)Cc4ccc(O)cc4)nn3)CC2)nc(N2CCN(C(=O)C(Cc3cc4ccccc4[nH]3)n3cc(C(N)Cc4ccc(O)cc4)nn3)CC2)n1 (configuration not stated),active: 2.33 µM
4,COc1cc(C(=O)Oc2cccc(Nc3ncnc4ccccc34)c2)cc(OC)c1OC,"inconclusive [inhibitor, single point]"
5,Cc1cccc(C)c1NC(=O)CN(C)C(=O)[C@H](C)NC(=O)c1ccco1,inactive
6,CCc1cc(=O)oc2c3c(cc(OCC(=O)NCCCCCC(=O)O)c12)OC(C)(C)CC3,"inconclusive [inhibitor, partial curve]"
7,O=c1ccc(Cl)cn1Cc1ccccc1F,inactive
8,COc1ccc(NCc2ccc([N+](=O)[O-])s2)cc1,"inconclusive [inhibitor, partial curve]"
9,N#Cc1c(N)n(C2CCCCC2)c2nc3ccccc3nc12,"inconclusive [inhibitor, full curve]"
10,O=C(CCN1C(=O)/C(=C\c2cccc(Br)c2)SC1=S)NCCCN1CCOCC1,"inconclusive [inhibitor, partial curve, poor fit]"
11,CS(=O)(=O)N(CC(=O)NC1CC2CCC1C2)c1ccc(Oc2ccccc2)cc1 (configuration not stated),"inconclusive [inhibitor, single point]"
12,COc1cccc(OCc2nnc(SCC(=O)NCc3ccco3)n2C)c1,inactive
13,CC(C)Cn1c(N)c(C(=O)NCCN2CCOCC2)c2nc3ccccc3nc21,active: 3.7 µM
14,O=C(Nc1cccs1)N1CCN(c2ncccn2)CC1,"inconclusive [inhibitor, partial curve]"
15,Cc1cccc(C(C)(C)C)c1OCCn1ccnc1,"inconclusive [inhibitor, partial curve]"
16,COc1ccc(-c2cn[nH]c2-c2ccc(O)cc2O)cc1OC,"inconclusive [inhibitor, single point]"
17,CCOC(=O)c1[nH]c(C)c(CN(C(C)=O)c2ccc(OCC)cc2)c1C,"inconclusive [inhibitor, partial curve, poor fit]"
18,COc1ccc(N(CC(=O)NCc2ccccc2OC)S(=O)(=O)c2ccccc2[N+](=O)[O-])c(OC)c1,"inconclusive [inhibitor, partial curve]"
19,Cc1cccc(C)c1Nc1nnc(SC/C(O)=C(\C#N)c2nc3ccccc3[nH]2)s1,"inconclusive [inhibitor, single point]"
20,O=C(C1CCCN(Cc2ccccc2F)C1)N1CCCCC1 (configuration not stated),inactive
21,O=C(CSc1nc2[nH]c(=O)[nH]c(=O)c2s1)Nc1cccc(F)c1,"inconclusive [inhibitor, single point]"
22,NC1=NC2(CCCCCC2)n2c(nc3ccccc32)N1,"inconclusive [inhibitor, full curve, poor fit]"
23,Cc1nnc(NC(=O)c2cccc(S(=O)(=O)N3CCN(C)CC3)c2)s1,inactive

row,SMILES,Potency
1,CCCC(=O)N1CCN(c2nc(CC(C)C)c3c(c2C#N)CCC3)CC1,active: 2.62 µM
2,CC[C@H](C)[C@@H](C(=O)NCCCCCCCCCCC(=O)N1CCNCC1)n1cc(CCCCCN)nn1,"inconclusive [inhibitor, partial curve, poor fit]"
3,CCOC(=O)c1cc(C)n(Cc2ccccc2)c1C,active: 3.29 µM
4,CC(=O)c1ccc(OCc2cc(C(=O)NCCn3nc(C)cc3C)no2)cc1,"inconclusive [inhibitor, single point]"
5,O=C(Cn1c(=O)c2c(ncn2Cc2ccccc2)n(Cc2ccccc2)c1=O)N1CCc2ccccc21,active: 3.29 µM
6,COc1ccc(-c2c(C)nc(N)nc2-c2ccc(OC)cc2O)cc1,"inconclusive [inhibitor, partial curve]"
7,O=c1c2ccccc2nc(/C=C/c2ccc(Br)cc2)n1CCCO,"inconclusive [inhibitor, single point]"
8,COC(=O)CSc1ccc(C#N)c(SCC(=O)OC)c1,"inconclusive [inhibitor, full curve, poor fit]"
9,NCC12CC3CC(C1)CC(c1ccc(Br)cc1)(C3)C2,inactive
10,COC(=O)c1sccc1NC(=O)CC1C(=O)NCCN1C(=O)c1ccc(N(C)C)cc1 (configuration not stated),"inconclusive [inhibitor, partial curve, poor fit]"
11,N/C(Cc1cccc2ccccc12)=N\OC(=O)c1ccccc1F,"inconclusive [inhibitor, partial curve, poor fit]"
12,c1ccc(CC[C@@H]2CC[C@@H](CCc3ccccc3)N2)cc1,"inconclusive [inhibitor, single point]"
13,COc1ccc(C2c3ccc4ccccc4c3Oc3ncn(CCO)c(=N)c32)cc1OC (configuration not stated),active: 10.4 µM
14,N#Cc1cccnc1N1CCN(C(=O)c2cccs2)CC1,inactive
15,CC/C(=N\N1CCCCCC1)c1c(O)n(-c2ccccc2C)c(=O)[nH]c1=O,"inconclusive [inhibitor, partial curve, poor fit]"
16,Cc1nn(Cc2ccccc2)c(C)c1/C=N/NC(=O)CNc1cccc(C(F)(F)F)c1,"inconclusive [inhibitor, single point]"
17,O=C(Nc1ccc2c(c1)OCCO2)c1c(F)cccc1F,inactive
18,Cc1cccc(N(Cc2ccccc2)C(=O)Cc2ccc(S(=O)(=O)N3CCOCC3)s2)c1,active: 13.1 µM
19,Cc1cccc(C)c1NC(=O)CN(C)C(=O)C1CC(=O)N(c2cccc3ccccc23)C1 (configuration not stated),"inconclusive [inhibitor, single point]"
20,N#C/C(N)=C(/C#N)N=Cc1cccc(Cl)c1,"inconclusive [inhibitor, single point]"
21,O=C(NCCN1C(=O)S/C(=C/c2ccccc2)C1=O)C1CC(=O)N(Cc2ccccc2)C1 (configuration not stated),"inconclusive [inhibitor, single point]"
